{
  "source": "PubChem BioAssay AID588579",
  "about": "(National Center for Advancing Translational Sciences (NCATS), 2011)",
  "note": "Where “and” joins values, the source holds several entries; their conditions need not be identical. Equal entries are not always repeated. Out of some 400,000 compounds screened, about 2,200 (0.55%) were called active. The shares of active, inactive and inconclusive entries below differ from those in the screen. Calls come from the whole dose curve; as a rule, active = well fitted inhibition curve with a large enough effect; inconclusive = small, poorly fitted or top-dose-only effect, or another doubt; inactive = no such curve, though single readings can be large or run the other way. Potencies beside an inconclusive call are fits to weak or partial responses and may not hold up. % is set by controls: 0 for no effect and ±100 for the full control effect; potency is the fitted concentration of half-maximal effect; tags give direction and shape of the fitted curve.",
  "data": [
    {"biological_target": "DNA polymerase kappa (Homo sapiens) (UniProt Q9UBT6)", "sequence (Q9UBT6 whole entry, looked up)": "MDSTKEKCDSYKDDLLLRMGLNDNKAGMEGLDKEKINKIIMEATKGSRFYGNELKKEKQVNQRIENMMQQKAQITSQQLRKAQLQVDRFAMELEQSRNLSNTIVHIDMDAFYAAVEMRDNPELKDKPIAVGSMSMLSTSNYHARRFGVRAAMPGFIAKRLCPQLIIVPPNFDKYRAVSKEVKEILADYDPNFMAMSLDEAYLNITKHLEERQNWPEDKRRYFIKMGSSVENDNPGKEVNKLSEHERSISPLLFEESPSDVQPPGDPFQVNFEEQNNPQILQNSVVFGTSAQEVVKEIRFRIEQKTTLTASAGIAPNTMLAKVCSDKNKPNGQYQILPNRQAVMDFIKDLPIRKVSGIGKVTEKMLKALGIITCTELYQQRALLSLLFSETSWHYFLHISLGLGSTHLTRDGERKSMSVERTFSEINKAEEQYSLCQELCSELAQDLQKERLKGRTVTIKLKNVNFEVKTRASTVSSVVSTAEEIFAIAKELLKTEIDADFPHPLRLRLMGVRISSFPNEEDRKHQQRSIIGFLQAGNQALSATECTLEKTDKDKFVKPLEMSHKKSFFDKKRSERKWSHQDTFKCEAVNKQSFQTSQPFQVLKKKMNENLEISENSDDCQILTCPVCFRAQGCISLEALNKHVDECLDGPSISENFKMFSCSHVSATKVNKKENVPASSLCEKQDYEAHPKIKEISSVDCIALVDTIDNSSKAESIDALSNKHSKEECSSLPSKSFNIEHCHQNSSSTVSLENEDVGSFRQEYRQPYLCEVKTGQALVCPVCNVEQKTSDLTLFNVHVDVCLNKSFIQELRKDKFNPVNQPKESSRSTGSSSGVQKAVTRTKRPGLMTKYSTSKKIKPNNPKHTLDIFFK", "experiment": "qHTS for Inhibitors of Polymerase Kappa", "details": "purified Pol kappa, fluorescent DNA synthesis assay, 10 min; series mostly up to 107 µM; activity, negative = inhibition: at the top concentration", "outline": "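First, compounds were pin-transferred onto 10 nM Pol kappa. After 15 min at room temperature, substrate was added to 50 nM final. Fluorescence was then measured kinetically at 0 and 10 min.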", "values": [
      {"smiles": "Cc1ccc(-c2nnc3c4ccccc4c(C)nn23)cc1NC(=O)c1ccccc1Cl", "activity, negative = inhibition": "inactive: 1.13%"},
      {"smiles": "C/C(=N\\NC(=O)OC(C)(C)C)c1ccccc1Br", "Potency": "inconclusive: 89.1 µM [inhibitor, single point]"},
      {"smiles": "O=C(O)CC/C(=C\\c1ccc(N2CCCC2)c([N+](=O)[O-])c1)c1nc2ccccc2s1", "Potency": "inconclusive: 79.4 µM [inhibitor, partial curve, poor fit]"},
      {"smiles": "CCCC1=Nc2cc(C(=O)NCCc3ccccc3)ccc2Sc2ccc(C)cc21", "Potency": "inconclusive: 89.1 µM [inhibitor, partial curve, poor fit]"},
      {"smiles": "Cc1cccc(C2=NN(c3ccccc3)[C@@H](C(=O)N3CCOC3=O)[C@@H]2C)c1", "Potency": "inconclusive: 44.7 µM [inhibitor, partial curve, poor fit]"},
      {"smiles": "Cc1ccc(-c2csc(NS(=O)(=O)c3cccc(F)c3)n2)o1", "Potency": "inconclusive: 89.1 µM [inhibitor, single point]"},
      {"smiles": "COc1ccc2cc3cc(C(=O)NCc4ccco4)oc3nc2c1", "Potency": "inconclusive: 89.1 µM [inhibitor, single point]"},
      {"smiles": "Cc1ccc(CNC(=O)CCS(=O)(=O)c2ccc(Br)cc2)cc1", "Potency": "active: 22.4 µM"},
      {"smiles": "Cc1nnc(NC(=O)c2sc3nc(-c4cccs4)cc(C(F)(F)F)c3c2N)s1", "Potency": "inconclusive: 50.1 µM [inhibitor, partial curve]"},
      {"smiles": "Cc1cccc(Cc2cnc(N3C(=N)SC(c4ccccc4)C3=O)s2)c1", "note": "(stereo unspecified)", "activity, negative = inhibition": "inactive: -32.9%"},
      {"smiles": "O=C(Nc1nc(-c2ccccn2)cs1)C1CC(=O)N(c2ccc3c(c2)OCCO3)C1", "note": "(stereo unspecified)", "Potency": "inconclusive: 50.1 µM [inhibitor, partial curve, poor fit]"},
      {"smiles": "C=CCc1cccc(/C=N/NC(=O)CN2CCN(Cc3ccccc3)CC2)c1O", "Potency": "inconclusive: 37.7 µM [inhibitor, single point]"},
      {"smiles": "COc1ccc([N+](=O)[O-])cc1N(CC1CO1)S(=O)(=O)c1ccc(C)cc1", "note": "(stereo unspecified)", "activity, negative = inhibition": "inactive: -7.13%"},
      {"smiles": "Cc1ccc2occ(CC(=O)Nc3c(C)cccc3C)c2c1", "activity, negative = inhibition": "inactive: -12.7%"},
      {"smiles": "COCc1[nH]c(=S)c(C#N)cc1C(=O)OC", "activity, negative = inhibition": "inactive: -36.1%"},
      {"smiles": "CN(C)C(=O)c1ccc(N=Nc2c(O)c3ccccc3[nH]c2=O)cc1", "activity, negative = inhibition": "inactive: -15.4%"},
      {"smiles": "CC(C)c1c(O)ccc2c1CCC1[C@@](C)(C=O)CCC[C@@]21C", "note": "(stereo partly specified)", "Potency": "inconclusive: 14.1 µM [inhibitor, partial curve, poor fit]"},
      {"smiles": "CN(C)c1nc(NC2CCC(NC(=O)c3ccc(F)c(F)c3)CC2)nc2ccccc12", "note": "(stereo unspecified)", "Potency": "inconclusive: 16.8 µM [inhibitor, partial curve, poor fit]"},
      {"smiles": "CC(=O)c1cccc(NC(=O)C(C)OC(=O)c2ccc(S(C)(=O)=O)c([N+](=O)[O-])c2)c1", "note": "(stereo unspecified)", "activity, negative = inhibition": "inactive: 6.54%"},
      {"smiles": "O=C(Nc1ccc(S(=O)(=O)Nc2nccs2)cc1)c1ccc(=O)[nH]c1", "Potency": "inconclusive: 89.1 µM [inhibitor, single point]"},
      {"smiles": "NC(=O)c1ccc([N+](=O)[O-])cc1SCc1ccccc1", "Potency": "inconclusive: 89.1 µM [inhibitor, partial curve, poor fit]"},
      {"smiles": "O=c1/c(=C/c2ccco2)sc2nc(-c3ccccc3Br)nn12", "Potency": "active: 79.4 µM"},
      {"smiles": "CCNC(=O)C1CCCN(c2nn3cc(-c4ccc(C)cc4)nc3s2)C1", "note": "(stereo unspecified)", "activity, negative = inhibition": "inactive: -9.05%"},
      {"smiles": "CCCn1c2ccccc2c2cnn(CC(=O)NCCCOC(C)C)c(=O)c21", "Potency": "inconclusive: 89.1 µM [inhibitor, single point]"},
      {"smiles": "CCOc1cc(/C=C2\\C(=O)N(c3nc(-c4ccc(Br)cc4)cs3)N=C2c2ccccc2)ccc1O", "Potency": "active: 79.4 µM"},
      {"smiles": "CCc1ccc(-c2nc(SCC(=O)c3c(N)n(C)c(=O)n(C)c3=O)n[nH]2)cc1", "Potency": "inconclusive: 89.1 µM [inhibitor, single point]"},
      {"smiles": "CC(=O)Nc1sc2c(c1-c1nc3ccccc3s1)CCN(C(C)C)C2", "Potency": "inconclusive: 7.08 µM [inhibitor, full curve, poor fit]"},
      {"smiles": "Clc1ccc2[nH]c3c(NCCCN4CCOCC4)ncnc3c2c1", "Potency": "inconclusive: 79.4 µM [inhibitor, partial curve, poor fit]"},
      {"smiles": "COc1ccc2nc(-n3c(O)c(C4=c5ccccc5=NC4=O)[nH]c3=S)sc2c1", "Potency": "inconclusive: 22.4 µM [inhibitor, full curve, poor fit]"},
      {"smiles": "Cc1ccc2ccccc2[n+]1CCCCI", "Potency": "inconclusive: 89.1 µM [inhibitor, partial curve, poor fit]"},
      {"smiles": "O=C(CNC(=O)c1ccccc1O)N/N=C/c1cc(Br)ccc1OC(=O)/C=C/c1ccco1", "Potency": "inconclusive: 79.4 µM [inhibitor, partial curve, poor fit]"},
      {"smiles": "CCOC(=O)C1=C(CSc2nc3c(cc2C#N)CN(C)CC3)OC(N)=C(C#N)C1c1ccncc1", "note": "(stereo unspecified)", "Potency": "inconclusive: 44.7 µM [inhibitor, partial curve, poor fit]"},
      {"smiles": "O=C(OCC(=O)N1CCCC1=O)c1nc(Cl)c(Cl)c(Cl)c1Cl", "Potency": "inconclusive: 89.1 µM [inhibitor, single point]"},
      {"smiles": "O=C(Cn1nc(C(=O)O)c2ccccc2c1=O)NC12CC3CC(CC(C3)C1)C2", "activity, negative = inhibition": "inactive: 5.73%"},
      {"smiles": "COCCCNC(=O)C1CCN(C(=O)c2ccc(-n3ccc4ccccc43)s2)CC1", "activity, negative = inhibition": "inactive: 1.18%"},
      {"smiles": "O=C(c1cc(-c2cccc(Cl)c2)on1)N1CCCCCC1", "activity, negative = inhibition": "inactive: -4.73%"},
      {"smiles": "COC(=O)c1cc(OC)c(OC)cc1NC(=O)c1cc(-c2ccccc2)nc2ccccc12", "Potency": "inconclusive: 89.1 µM [inhibitor, single point]"},
      {"smiles": "CC(=O)Oc1ccc(C(=O)[C@H]2[C@H]3C(=O)N(c4cccc5ccccc45)C(=O)[C@H]3[C@@H]3C=CC=NN32)cc1", "Potency": "inconclusive: 39.8 µM [inhibitor, full curve, poor fit]"},
      {"smiles": "COc1ccc(-c2nnc(SCC(=O)Nc3ccc(C)c(Cl)c3)nc2-c2ccc(OC)c(OC)c2)cc1OC", "activity, negative = inhibition": "inactive: -8.27% [at 60.1 µM]"},
      {"smiles": "Cc1cc(O)c2c(c1)C(=O)c1cccc(O)c1C2=O", "Potency": "inconclusive: 25.1 µM [inhibitor, single point] and inconclusive: 12.6 µM [inhibitor, partial curve]"},
      {"smiles": "CCCCn1c(NS(=O)(=O)c2ccccc2)c(S(=O)(=O)c2ccc(C)cc2)c2nc3ccccc3nc21", "activity, negative = inhibition": "inactive: -11.1%"}
    ]}
  ]
}
